# This is one part of the list.
# B1: B160 (Bifidobacterium sp) (protein)
# chain: MVSHNKRIVAALAAVAAMGIGLAGCGGSDTAGDTKSGSDGGVVNITYMHRLPDSEGMTLVNDIVAKWNKEHPNIQVKATKFDGNAADMIKKLETDVKAGNAPDLAQVGYAEVPEVFTKGLLQDVTDEAAKYKDDFASGPFALMQVDGKTYGLPQDTGPLTYFYNAAEFEKLGITVPKTADELIETAKKTAAQGKYIMTFTPDEAMMMMSGQAGASGPWYKVDGNSWVVNTQTKGSKAVADVYQQLIDNKAALTNPRWDASFDNSIQSGQLIGTVAAAWEAPLFIDSAGGTGAGEWKVTQLGDWFGNGTKTGANGGSGVAVLKGSKHPAEAMEFLDWFNTQVDDLVSQGLVVAATTADAKTPQKWSDYFSGQDVMAEFKTANDNMGDFTYMPGFSAVGAAMKQTAAKAADGSAKVSDVFDTAQKTSVDTLKNLGLSVKE
# What was measured:
# Experiment in all cases: glycan array binding signal (z-score within array); higher = stronger binding
# Conditions in all cases: glycan notation: IUPAC condensed, linker removed
# Neu5Ac(a2-8)Neu5Ac = target: Neu5Ac(a2-8)Neu5Ac
# Summary of the method: (§1)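 Negative Z-scores can be read as non-binding. The Z-score is calculated within each array and then averaged across arrays of one protein sequence at different concentrations or buffers and across linkers. Arrays, 3228 in all, were curated from the Consortium for Functional Glycomics database and kept only where the protein sequence was available.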
# [1] = target: Neu5Ac(a2-8)Neu5Ac(a2-3)Gal(b1-3)GalNAc(b1-4)[Neu5Ac(a2-3)]Gal(b1-4)Glc
# Summary of the method: as §1
# [2] = target: Neu5Ac(a2-8)Neu5Ac(a2-3)Gal(b1-3)GalNAc(b1-4)[Neu5Ac(a2-8)Neu5Ac(a2-3)]Gal(b1-4)Glc
# Summary of the method: as §1
# [3] = target: Neu5Ac(a2-8)Neu5Ac(a2-3)Gal(b1-4)Glc
# Summary of the method: as §1
# [4] = target: Neu5Ac(a2-8)Neu5Ac(a2-3)Gal(b1-4)GlcNAc
# Summary of the method: as §1
# [5] = target: Neu5Ac(a2-8)Neu5Ac(a2-3)[Gal(b1-3)GalNAc(b1-4)]Gal(b1-4)Glc
# Summary of the method: as §1
# [6] = target: Neu5Ac(a2-8)Neu5Ac(a2-3)[GalNAc(b1-4)]Gal(b1-4)Glc
# Summary of the method: as §1
# [7] = target: Neu5Ac(a2-8)Neu5Ac(a2-8)Neu5Ac
# Summary of the method: as §1
# [8] = target: Neu5Ac(a2-8)Neu5Ac(a2-8)Neu5Ac(a2-3)Gal(b1-4)Glc
# Summary of the method: as §1
# [9] = target: Neu5Ac(a2-8)Neu5Ac(a2-8)Neu5Ac(a2-3)[Gal(b1-3)GalNAc(b1-4)]Gal(b1-4)Glc
# Summary of the method: as §1
# [10] = target: Neu5Ac(a2-8)Neu5Ac(a2-8)Neu5Ac(a2-3)[GalNAc(b1-4)]Gal(b1-4)Glc
# Summary of the method: as §1
# [11] = target: Neu5Ac(a2-8)Neu5Ac(a2-8)Neu5Ac(a2-8)Neu5Ac(a2-3)[GalNAc(b1-4)]Gal(b1-4)Glc
# Summary of the method: as §1
# [12] = target: Neu5Ac(a2-8)Neu5Gc(a2-3)Gal(b1-4)GlcNAc
# Summary of the method: as §1
# [13] = target: Neu5Ac(b2-6)Gal(b1-4)GlcNAc
# Summary of the method: as §1
# Neu5Ac(b2-6)GalNAc = target: Neu5Ac(b2-6)GalNAc
# Summary of the method: as §1
# [14] = target: Neu5Ac9Ac(a2-3)Gal(b1-3)GlcNAc
# Summary of the method: as §1
# [15] = target: Neu5Ac9Ac(a2-3)Gal(b1-4)GlcNAc
# Summary of the method: as §1
# [16] = target: Neu5Ac9Ac(a2-6)Gal(b1-4)GlcNAc
# Summary of the method: as §1
# [17] = target: Neu5Gc(a2-3)Gal(b1-3)GlcNAc
# Summary of the method: as §1
# [18] = target: Neu5Gc(a2-3)Gal(b1-3)[Fuc(a1-4)]GlcNAc
# Summary of the method: as §1
# Neu5Gc(a2-3)Gal(b1-4)Glc = target: Neu5Gc(a2-3)Gal(b1-4)Glc
# Summary of the method: as §1
# [19] = target: Neu5Gc(a2-3)Gal(b1-4)GlcNAc
# Summary of the method: as §1
# [20] = target: Neu5Gc(a2-3)Gal(b1-4)GlcNAc(b1-3)Gal(b1-4)GlcNAc(b1-2)Man(a1-3)[Neu5Gc(a2-3)Gal(b1-4)GlcNAc(b1-3)Gal(b1-4)GlcNAc(b1-2)Man(a1-6)]Man(b1-4)GlcNAc(b1-4)GlcNAc
# Summary of the method: as §1
# [21] = target: Neu5Gc(a2-3)Gal(b1-4)[Fuc(a1-3)]GlcNAc
# Summary of the method: as §1
# [22] = target: Neu5Gc(a2-6)Gal(b1-4)GlcNAc
# Summary of the method: as §1
# Neu5Gc(a2-6)GalNAc = target: Neu5Gc(a2-6)GalNAc
# Summary of the method: as §1
# [23] = target: Neu5Gc(a2-8)Neu5Ac(a2-3)Gal(b1-4)GlcNAc
# Summary of the method: as §1
# [24] = target: Neu5Gc(a2-8)Neu5Gc(a2-3)Gal(b1-4)GlcNAc
# Summary of the method: as §1
# [25] = target: Neu5Gc(a2-8)Neu5Gc(a2-3)Gal(b1-4)GlcNAc(b1-3)Gal(b1-4)GlcNAc
# Summary of the method: as §1
# [26] = target: Neu5Gc(a2-8)Neu5Gc(a2-6)Gal(b1-4)GlcNAc
# Summary of the method: as §1
# [27] = target: Neu5Gc(b2-6)Gal(b1-4)GlcNAc
# Summary of the method: as §1
binder,measurement,setting,value
B1,glycan array binding signal (z-score),Neu5Ac(a2-8)Neu5Ac,-0.174
same,glycan array binding signal (z-score),[1],-0.172
same,glycan array binding signal (z-score),[2],-0.133
same,glycan array binding signal (z-score),[3],-0.183
same,glycan array binding signal (z-score),[4],-0.182
same,glycan array binding signal (z-score),[5],-0.149
same,glycan array binding signal (z-score),[6],-0.159
same,glycan array binding signal (z-score),[7],-0.167
same,glycan array binding signal (z-score),[8],-0.164
same,glycan array binding signal (z-score),[9],-0.173
same,glycan array binding signal (z-score),[10],-0.183
same,glycan array binding signal (z-score),[11],-0.144
same,glycan array binding signal (z-score),[12],-0.179
same,glycan array binding signal (z-score),[13],-0.186
same,glycan array binding signal (z-score),Neu5Ac(b2-6)GalNAc,-0.196
same,glycan array binding signal (z-score),[14],-0.18
same,glycan array binding signal (z-score),[15],-0.176
same,glycan array binding signal (z-score),[16],-0.181
same,glycan array binding signal (z-score),[17],-0.189
same,glycan array binding signal (z-score),[18],-0.124
same,glycan array binding signal (z-score),Neu5Gc(a2-3)Gal(b1-4)Glc,-0.158
same,glycan array binding signal (z-score),[19],-0.174
same,glycan array binding signal (z-score),[20],-0.16
same,glycan array binding signal (z-score),[21],-0.174
same,glycan array binding signal (z-score),[22],-0.165
same,glycan array binding signal (z-score),Neu5Gc(a2-6)GalNAc,-0.16
same,glycan array binding signal (z-score),[23],-0.171
same,glycan array binding signal (z-score),[24],-0.208
same,glycan array binding signal (z-score),[25],-0.175
same,glycan array binding signal (z-score),[26],-0.167
same,glycan array binding signal (z-score),[27],-0.161
